# In PubChem BioAssay AID1347434 (National Center for Advancing Translational Sciences (NCATS), 2020):
# The whole screen tested about 1,200 compounds, of which about 30 (2%) were called active. The inconclusive results got no clear call from the source; some entries with a clear call stand among them for comparison. Calls follow the shape of the dose curve; as a rule, active = well fitted inhibition curve with a large enough effect; inconclusive = small, poorly fitted or top-dose-only effect; inactive = flat fitted curve, though single readings scatter. Potencies beside an inconclusive call are fits to weak or partial responses and may not hold up.
# Target: Single-stranded DNA cytosine deaminase (Homo sapiens) (UniProt Q9GZX7)
# UniProt Q9GZX7, sequence (Q9GZX7 whole entry, looked up): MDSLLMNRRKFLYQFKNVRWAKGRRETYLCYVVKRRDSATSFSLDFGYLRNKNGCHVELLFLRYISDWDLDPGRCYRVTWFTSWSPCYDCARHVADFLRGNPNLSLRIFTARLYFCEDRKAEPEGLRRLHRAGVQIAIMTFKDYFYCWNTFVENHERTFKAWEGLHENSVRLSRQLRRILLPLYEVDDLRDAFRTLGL
# Assay: Confirmatory qHTS assay for inhibitors of Activation Induced Cytidine Deaminase (AID): AID signals
# Settings: recombinant AID, FRET deamination/UDG coupled fluorescence, 4 h; series mostly up to 115 µM
# How it was run: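 Read 1 (AID) was measured at 540 ex/590 em after a 30 min NaOH step. The reaction was AID (1 uM, 4/3x stock) with UDG, compound at final 7.32 nM - 114 uM for 10 min, then DJC20/DJC23 substrate for 4 hr at room temperature. A UDG read at 560/665 serves as counterscreen.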
# Potency is read from the fitted curve at half-maximal effect; tags tell the direction and shape of the fitted curve.
row,SMILES,Potency
1,COc1cccc(Cc2nc3ccccc3nc2SCC(=O)N2CCCCC2C)c1 (stereo not drawn),"inconclusive: 15.8 µM [inhibitor, partial curve, poor fit]"
2,Cc1cccc(OCCCn2c(CCNC(=O)C3CCCCC3)nc3ccccc32)c1,"inconclusive: 25.1 µM [inhibitor, partial curve]"
3,CCN(CC)C(=O)CSc1nc(-c2ccc(C)cc2)nc2c1Cc1c(CO)cnc(C)c1O2,"inconclusive: 35.5 µM [inhibitor, partial curve]"
4,Cc1ccc(NC(=O)c2ccc3c(O)c(S(=O)(=O)c4ccccc4)c(=O)[nH]c3c2)cc1Cl,"inconclusive: 35.5 µM [inhibitor, partial curve]"
5,Cc1ccc2[nH]c(=O)c3cc(C(=O)NCCCN4CCC(C)CC4)sc3c2c1,"inconclusive: 31.6 µM [inhibitor, partial curve]"
6,COc1ccccc1CNC(=O)C(C)n1c(=O)cc(-c2ccccc2)c2c(C)nn(C)c21 (stereo not drawn),"inconclusive: 28.2 µM [inhibitor, partial curve, poor fit]"
7,COc1ccc(-c2nn3c(-c4ccccc4C)nnc3c3ccccc23)cc1,"inconclusive: 31.6 µM [inhibitor, single point]"
8,COc1ccc(NC(=O)CSc2nc3nc(C)c(Cc4ccccc4)c(C)n3n2)cc1OC,inactive
9,Cc1ccccc1OCC(=O)Nc1cccc(C(=O)OCc2cc(=O)n3c(C)csc3n2)c1,"inconclusive: 39.8 µM [inhibitor, partial curve, poor fit]"
10,COc1ccc(CNCCC(c2ccc3c(c2)OCO3)c2ccccc2OC)cc1 (stereo not drawn),"inconclusive: 28.2 µM [inhibitor, partial curve, poor fit]"
11,COc1ccc(Cn2cc(C(=O)c3ccc(C)c(C)c3)c(=O)c3ccccc32)cc1,"inconclusive: 17.8 µM [inhibitor, partial curve, poor fit]"
12,Cc1ccc(CNC(=O)c2c[nH]n3c(=O)c(Cc4ccc(Cl)cc4)c(C)nc23)cc1,"inconclusive: 31.6 µM [inhibitor, partial curve]"
13,CCOc1ccc(-c2cc(C(=O)NCc3ccccc3Cl)c3ccccc3n2)cc1,"inconclusive: 44.7 µM [inhibitor, partial curve]"
14,Cc1ccc(OCC(=O)Nc2cccc(OCc3cc(=O)n4cccc(C)c4n3)c2)cc1C,"inconclusive: 35.5 µM [inhibitor, partial curve, poor fit]"
15,CCn1cc2nc(SCc3cccc(C)c3)n(CCc3ccccc3)c(=O)c2n1,"inconclusive: 35.5 µM [inhibitor, single point]"
16,COc1ccccc1OCCn1c(C(C)Oc2ccccc2)nc2ccccc21 (stereo not drawn),"inconclusive: 28.2 µM [inhibitor, partial curve, poor fit]"
17,CCc1ccc(CN(Cc2ccco2)c2cnc(S(C)(=O)=O)nc2C(=O)Nc2ccc(C)c(Cl)c2)cc1,inactive
18,CCOc1cc(CNCCSc2nnnn2C)ccc1OCc1ccc(Cl)cc1Cl,"inconclusive: 44.7 µM [inhibitor, partial curve, poor fit]"
19,CCCCN(C)CC(O)Cn1cc(/C=C/C(=O)c2ccc(OC)c(OC)c2)c2ccccc21 (stereo not drawn),"inconclusive: 35.5 µM [inhibitor, single point]"

row,SMILES,Potency
1,Cc1ccc2nc(Cl)c3cc(C(=O)N4CCCC(C)C4)sc3c2c1 (stereo not drawn),inactive
2,Cc1cccc(N2CCN(C(=O)C3CCCN(C(=O)c4cc5sccc5n4C)C3)CC2)c1C (stereo not drawn),inactive
3,CCOc1cccc(CNc2ccc(O)cc2)c1OCc1ccccc1Cl,"inconclusive: 14.1 µM [inhibitor, partial curve, poor fit]"
4,CCOc1ccccc1NC(=O)C(C)Sc1nc(-c2ccccc2)c(C#N)c(=O)[nH]1 (stereo not drawn),"inconclusive: 31.6 µM [inhibitor, single point]"
5,Cc1ccc(S(=O)(=O)c2nnn3c2nc(N2CCC(C(N)=O)CC2)c2cc(Cl)ccc23)cc1C,"inconclusive: 28.2 µM [inhibitor, partial curve]"
6,CCCCC1CCC(CCCC(C)CCC(=O)O)CC1 (stereo not drawn),active: 35.5 µM
7,O=C(O)c1c(-c2ccccc2)oc2ccc(OCc3ccc(Cl)c(Cl)c3)cc12,"inconclusive: 35.5 µM [inhibitor, single point]"
8,CCc1nnc(SCc2cccc(F)c2)c2cc3sc(C)cc3n12,inactive
9,CCc1ccc(C(=O)c2cn(Cc3ccc(F)cc3)c3cc(OC)c(OC)cc3c2=O)cc1,"inconclusive: 31.6 µM [inhibitor, single point]"
10,Cc1ccc(C)c(Cn2nc(-c3cc(C)ccc3C)ccc2=O)c1,inactive
11,Cc1cc(OCC(=O)N(Cc2ccc(N(C)C)cc2)C2CCS(=O)(=O)C2)cc(C)c1Cl (stereo not drawn),"inconclusive: 22.4 µM [inhibitor, partial curve]"
12,COc1ccc(CC(=O)NCC(c2cccs2)S(=O)(=O)c2ccc(Cl)cc2)cc1 (stereo not drawn),"inconclusive: 35.5 µM [inhibitor, single point]"
13,CCn1c(SCc2ccc(F)cc2Cl)nc(=O)c2c(C(=O)OC)cc(C3CC3)nc21,inactive
14,Cc1ccc(CSc2nc(-c3ccc(C(C)(C)C)cc3)nc3cc(=O)[nH]n23)cc1,"inconclusive: 44.7 µM [inhibitor, single point]"
15,Cc1ccc(CNC(=O)c2sc3nc4n(c(=O)c3c2C)CCCCC4)cc1,"inconclusive: 17.8 µM [inhibitor, partial curve, poor fit]"
16,CC(C)c1ccc(NC(=O)c2ccc3c(O)c(S(=O)(=O)c4ccccc4)c(=O)[nH]c3c2)cc1,active: 31.6 µM
17,CCOc1ccccc1NC(=O)c1c2c(nc3ccccc13)C(=O)N(C1CCCCC1)C2,"inconclusive: 39.8 µM [inhibitor, partial curve, poor fit]"
18,O=C(c1cc2ccc3cccnc3c2[nH]1)N1CCN(c2cccc(C(F)(F)F)c2)CC1,"inconclusive: 31.6 µM [inhibitor, partial curve, poor fit]"
19,COc1ccccc1C(=O)Nc1nc2nc(-c3ccccc3)cc(=O)n2[nH]1,"inconclusive: 17.8 µM [inhibitor, partial curve]"
